Measurements taken from PubChem BioAssay AID1508649 (National Center for Advancing Translational Sciences (NCATS), 2021).
The whole screen tested about 43,000 compounds, of which about 830 (1.9%) were called active. This list was built around the results that the source calls inconclusive (neither active nor inactive); the mix of calls is not that of the screen. The calls were made as follows: active = clear falling dose curves in both reporters; inconclusive = both reporters move, but less clearly or upward; inactive = either reporter flat; the % is the NLuc reporter signal. No potency is given beside an inconclusive call; the fits are too rough.

Assay: Cell-based coincidence reporter assay to measure PMP22 gene transcription in S16 Pmp22-F2sN cells - Primary screen
Conditions: S16 Pmp22-F2sN Schwann cells (luciferase reporters placed in the Pmp22 gene), FLuc/NLuc coincidence luminescence, 24 h; measured here: NLuc reporter readout, at 57.5 µM (top of the series); activity change, negative = inhibition: at the top concentration
Outline: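 Reporter cells (S16 Pmp22-F2sN, 500–1,000 per well) exposed to compounds for 24 h, 37C, 5% CO2; lysis with FLuc read after 10 min, then Stop&Glo and NLuc read after 10 min.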
% is scaled to controls: 0 for no effect and ±100 for the full control effect; potency is read from the fitted curve at half-maximal effect; tags tell the direction and shape of the fitted curve.

Row | Structure (SMILES) | Potency | activity change, negative = inhibition
1 | Cc1ccc(CNS(=O)(=O)c2ccc3c(c2)CC(C)N3C(=O)C2CCC2)cc1 (stereo not drawn) | inconclusive [phenotype inactive, single point] | 
2 | Cc1ccc(-n2ncc3c(N4CCN(c5ccc(F)cc5)CC4)ncnc32)cc1 |  | inactive: 5.18%
3 | COc1cccc(NC(=O)N(Cc2cn(C)c3ccccc23)C2CCCCCC2)c1 | active: 10.6 µM | 
4 | Cc1ccc(CNC(=O)C(=O)NCC(c2ccco2)S(=O)(=O)c2ccc(C)cc2)cc1 (stereo not drawn) | inconclusive [phenotype inactive, single point] | 
5 | CCCCOc1cccc(C(=O)N(Cc2ccc(Br)o2)C2CCS(=O)(=O)C2)c1 (stereo not drawn) |  | inactive: 0.305%
6 | Cc1cccc(C(=O)Nc2ccc(C(=O)OCc3cc(=O)n4c(C)csc4n3)cc2)c1 | inconclusive [phenotype inactive, partial curve, poor fit] | 
7 | COC(=O)c1ccn(-c2nc(-c3ccc(Cl)cc3)cc(C(F)(F)F)n2)n1 |  | inactive: -22.7%
8 | Cc1oc(-c2ccc(Cl)cc2)nc1CN1CCCC(C(=O)NCCc2ccccc2)C1 (stereo not drawn) | active: 18.9 µM | 
9 | COc1ccc(Nc2nc(Nc3ccc(OC)cc3OC)nc(N3CCOCC3)n2)c(OC)c1 |  | inactive: -14.4%
10 | Nc1nn(-c2ccccc2)nc1C(=O)OCc1c(F)cccc1Cl |  | inactive: -7.45%
11 | Cc1cccc(N(CC(=O)NCCSCc2ccccc2)S(=O)(=O)c2ccccc2)c1C | inconclusive [phenotype inactive, single point] | 
12 | COC(=O)c1ccc(NC(=O)Cn2cnc3c2c(=O)n(C)c(=O)n3C)cc1 |  | inactive: -30.7%
13 | Clc1ccc(-n2c(Cc3ccccc3)nnc2SCc2nc(-c3cccs3)no2)cc1 | inconclusive [phenotype inactive, single point] | 
14 | Cc1nc(SCC(=O)Nc2ccccc2C)cc(-c2ccccc2)n1 | inconclusive [phenotype inactive, single point] | 
15 | CCOC(=O)c1c(NC(=O)c2nc(SCC)ncc2Cl)sc2c1CCCC2 |  | inactive: -14.9%
16 | Cc1ccccc1Nc1c(-c2ccc(Cl)cc2)nc2c(C)cccn12 | inconclusive [phenotype inactive, single point] | 
17 | Cc1oc2ncnc(N3CCCCC3)c2c1C(=O)NCC1CCN(Cc2cccc(F)c2)CC1 | inconclusive [phenotype inactive, single point] | 
18 | CCOC(=O)c1ccccc1NC(=O)CN1CCCN(Cc2cc(C)ccc2C)S1(=O)=O | inconclusive [phenotype inactive, single point] | 
19 | COc1cc(NC(=O)CN2C(=O)c3ccccc3Sc3ccc(C(=O)N4CCCC4)cc32)cc(OC)c1 | inconclusive [phenotype inactive, partial curve, poor fit] | 
20 | O=C(CCCCn1c(=O)c2ccccc2n(CC(=O)Nc2cccc(C(F)(F)F)c2)c1=O)NCc1ccc2c(c1)OCO2 | inconclusive [phenotype inactive, single point] | 
21 | COc1ccc(S(=O)Cc2ccc(C(=O)N3CCN(c4cccc(C)c4C)CC3)o2)cc1 (stereo not drawn) | inconclusive [phenotype inactive, partial curve] | 

Row | Structure (SMILES) | Potency | activity change, negative = inhibition
22 | COc1cccc(Cn2c(=O)cc(C)c3c(C)nn(C)c32)c1 | inconclusive [phenotype inactive, partial curve] | 
23 | COc1cccc(NC(=O)Cn2c(=O)n(-c3cccc(OC)c3)c(=O)c3sc4ccccc4c32)c1 | inconclusive [phenotype inactive, single point] | 
24 | CCCCNC(=O)CCCN1C(=O)CCn2nc(-c3cccn3C)cc21 | inconclusive [phenotype inactive, single point] | 
25 | COc1cccc2c1cc1c(=O)n(CC(=O)N3CCCCC3)nc(C)n12 |  | inactive: -24.7%
26 | O=C(Nc1cccc(Cl)c1)C1CCN(c2nc3ccccc3nc2C(F)(F)F)CC1 | inconclusive [phenotype inactive, single point] | 
27 | COc1ccc(C(=O)NCC(c2cccnc2)N2CCN(c3ccccc3OC)CC2)cc1 (stereo not drawn) |  | inactive: -7.99%
28 | CCCn1c(/C=C/c2ccccc2)nc2ccccc21 |  | inactive: -11.2%
29 | CCOc1ccc(CC(=O)NCCS(=O)(=O)N2CCN(c3ccc(OC)cc3)CC2)cc1 |  | inactive: -0.131%
30 | COc1ccc(CCNC(=O)c2c(O)nc3c(C)cccn3c2=O)cc1OC |  | inactive: -29%
31 | O=C(NCCc1ccc(Cl)cc1)C(=O)NCC(c1ccco1)S(=O)(=O)c1ccccc1 (stereo not drawn) | inconclusive [phenotype inactive, partial curve, poor fit] | 
32 | COc1ccc(Br)cc1CNC(=O)CCCn1c(=O)c2cccn2c2ccccc21 | inconclusive [phenotype inactive, single point] | 
33 | CCc1ccc(-n2c(C)nnc2SCc2nc(-c3ccc(OC)cc3)no2)cc1 | inconclusive [phenotype inactive, single point] | 
34 | CCCN(CCC)C(=O)Cn1c(=O)n(Cc2ccc(C(=O)NCCc3ccc(OC)c(OC)c3)cc2)c(=O)c2ccccc21 | inconclusive [phenotype inactive, single point] | 
35 | Cc1nc2sc(C(=O)NCc3ccc(Cl)cc3)c(NC(=O)c3ccccc3)c2c(C)c1C | inconclusive [phenotype inactive, single point] | 
36 | Cc1ccnc(NC(c2ccccc2F)c2ccc3cccnc3c2O)c1 (stereo not drawn) | inconclusive [phenotype inactive, full curve, poor fit] | 
37 | Cc1cc(C)cc(C(=O)Nc2ccc(-c3nc4ncccc4o3)cc2)c1 | inconclusive [phenotype inactive, single point] | 
38 | Cc1cc(C)cc(NC(=O)N2CCC(N3CCCCC3)CC2)c1 |  | inactive: -7.72%
39 | Cc1cn2c(=O)cc(COc3cccc(NC(=O)c4ccccc4C)c3)nc2s1 | inconclusive [phenotype inactive, single point] | 
40 | CCc1cccc(-n2c(C)nc3c(cnn3-c3ccc(Cl)cc3)c2=O)c1 | inconclusive [phenotype inactive, partial curve] | 
41 | CC(=O)N1CCOc2cc(S(=O)(=O)Nc3cccc(C(F)(F)F)c3)c(Cl)cc21 | inconclusive [phenotype inactive, single point] | 
42 | CCCCSCCCNC(=O)CN1C(=O)c2cccnc2Oc2ccc(Cl)cc21 |  | inactive: -13.9%

Row | Structure (SMILES) | Potency | activity change, negative = inhibition
43 | O=C(Nc1ccc(NC(=O)c2cc3ccccc3o2)cc1)c1ccccc1 |  | inactive: 0.228%
44 | COc1ccccc1N1CCN(C(=O)c2ccc(CS(=O)c3ccccc3C)o2)CC1 (stereo not drawn) | inconclusive [phenotype inactive, partial curve, poor fit] | 
45 | CC(C)c1ccc(OCC(=O)Nc2ccc(S(=O)(=O)Nc3ncccn3)cc2)cc1 |  | inactive: 65%
46 | CCCCN1C(=O)C(O)(CC(=O)c2ccc(CC)cc2)c2cc(Br)ccc21 (stereo not drawn) | inconclusive [phenotype inactive, single point] | 
47 | Cc1c(Cl)ccc2sc(N3CCN(C(=O)CCS(=O)(=O)c4ccc(F)cc4)CC3)nc12 | active: 11.9 µM | 
48 | COC(=O)c1cc(-c2ccc(Cl)cc2)c2c(=O)[nH]c(=O)n(C)c2n1 | inconclusive [phenotype inactive, single point] | 
49 | Cc1ccc(N(C)C(=O)Cn2ncc3c([nH]c4ccccc43)c2=O)cc1C |  | inactive: 0.403%
50 | CCS(=O)(=O)c1ccc(C(=O)N2CCN(c3nc4c(OC)ccc(C)c4s3)CC2)cc1 |  | inactive: 33.6%
51 | O=C(CSc1cn(CCNC(=O)c2ccccc2F)c2ccccc12)Nc1ccc2c(c1)OCCO2 | inconclusive [phenotype inactive, single point] | 
52 | COc1ccc(NC(=O)CCS(=O)(=O)c2cc(Br)cc3c2N(C(C)=O)CC3)c(OC)c1 |  | inactive: 9.77%
53 | COC(=O)C1=C(c2ccccc2)c2ccccc2S(=O)(=O)N1CC(=O)Nc1cc(C)ccc1C | inconclusive [phenotype inactive, single point] | 
54 | COCCCn1c(SCc2ccccc2F)nc2c(sc3ccccc32)c1=O | inconclusive [phenotype inactive, partial curve, poor fit] | 
55 | CCc1cccc(NC(=O)Cn2c(C(=O)OC)cc3occc32)c1 |  | inactive: 19.4%
56 | COc1ccc(C2C=C(c3ccc(C)cc3)Nc3c(C(=O)Nc4ccccc4)cnn32)cc1 (stereo not drawn) | inconclusive [phenotype inactive, single point] | 
57 | CCCS(=O)(=O)c1c(S(=O)(=O)CCC)c2cc(C(C)(C)C)ccn2c1C(=O)c1ccc(OC)c(OC)c1 |  | inactive: -3.61%
58 | CCN(c1cccc(C)c1)C(CNS(=O)(=O)c1ccccc1)c1ccccc1 (stereo not drawn) | inconclusive [phenotype inactive, single point] | 
59 | CC(C)(C)C(=O)Nc1ccc(Cl)c(-c2nc3ccccc3[nH]2)c1 |  | inactive: -3.89%
60 | Oc1cccc(-c2nc3ncccn3c2Nc2cccc(C(F)(F)F)c2)c1 | inconclusive [phenotype inactive, partial curve, poor fit] | 
61 | CSc1nc2sc3c(c2c(=O)n1-c1ccc(C)c(Cl)c1)CCN(C(C)=O)C3 |  | inactive: -13.7%
62 | Cc1[nH]n2c(=O)cc(-c3ccccc3Cl)nc2c1-c1ccccc1 | inconclusive [phenotype inactive, single point] | 
63 | O=C(NCCCc1nc2ccccc2n1Cc1ccccc1Cl)C1CCCCC1 | inconclusive [phenotype inactive, partial curve, poor fit] | 
